This is an account of results in PubChem BioAssay AID1645882 (National Center for Advancing Translational Sciences (NCATS), 2021).

Among all 16,000 compounds or so, about 120 (0.75%) were called active. Not shown: some 4% with an inconclusive outcome. Calls follow the shape of the dose curve; as a rule, active = well fitted inhibition curve with a large enough effect; inconclusive = small, poorly fitted or top-dose-only effect; inactive = no such curve, though single readings can be large or run the other way. The list shows a part of the results.

Chain of UniProt O95398 (O95398 whole entry, looked up): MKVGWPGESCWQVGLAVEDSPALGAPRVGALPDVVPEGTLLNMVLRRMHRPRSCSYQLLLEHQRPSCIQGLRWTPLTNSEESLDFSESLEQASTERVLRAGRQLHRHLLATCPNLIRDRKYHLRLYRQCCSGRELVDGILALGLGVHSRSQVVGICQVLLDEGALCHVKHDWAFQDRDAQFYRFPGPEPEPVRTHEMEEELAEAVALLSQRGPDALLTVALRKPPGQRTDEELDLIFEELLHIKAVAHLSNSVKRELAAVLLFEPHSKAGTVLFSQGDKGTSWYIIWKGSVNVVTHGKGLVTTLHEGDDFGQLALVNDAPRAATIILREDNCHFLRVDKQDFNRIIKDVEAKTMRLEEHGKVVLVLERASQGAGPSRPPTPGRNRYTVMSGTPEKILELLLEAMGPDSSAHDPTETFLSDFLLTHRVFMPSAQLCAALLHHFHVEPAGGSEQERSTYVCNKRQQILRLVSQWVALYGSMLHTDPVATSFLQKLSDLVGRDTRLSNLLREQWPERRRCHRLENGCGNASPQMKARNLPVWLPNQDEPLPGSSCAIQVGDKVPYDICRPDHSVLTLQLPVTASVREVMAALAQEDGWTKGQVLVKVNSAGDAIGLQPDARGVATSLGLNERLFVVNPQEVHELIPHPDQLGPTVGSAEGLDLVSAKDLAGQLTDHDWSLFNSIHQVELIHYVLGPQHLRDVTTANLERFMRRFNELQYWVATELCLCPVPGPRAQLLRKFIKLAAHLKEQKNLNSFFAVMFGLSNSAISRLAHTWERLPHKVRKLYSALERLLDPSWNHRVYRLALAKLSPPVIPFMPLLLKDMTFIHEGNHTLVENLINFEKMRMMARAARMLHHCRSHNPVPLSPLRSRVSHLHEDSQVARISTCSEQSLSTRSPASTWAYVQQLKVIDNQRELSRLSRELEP

This experiment concerns the target Rap guanine nucleotide exchange factor 3 (Homo sapiens) (UniProt O95398). The experiment is described as follows: Validation qHTS for antagonist of cAMP-regulated guanine nucleotide exchange factor 3 (EPAC1).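 Also: plate controls were DMSO for no effect and ATA control for full effect; nearly all actives have a fitted effect of over 75% in size.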 The conditions noted are these: EPAC1 Rap1B-BODIPY-GDP exchange, fluorescence; series mostly up to 150 µM; activity change, negative = inhibition: at the top concentration. The method, boiled down:
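Nucleotide exchange followed as fluorescence loss when BODIPY-GDP leaves Rap1B (480 nm excitation, 540 nm emission), read at 5 min intervals over 30 min. Reaction: 100 nM EPAC1, 250 nM RAP1B-BODIPY-GDP, 50 uM GDP; ATA and DMSO define normalization.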
As for `Cc1nc(NCc2c(C)nn(C)c2Cl)sc1-c1ccn(CC2COc3ccccc3O2)n1` (configuration not stated), the “activity change, negative = inhibition” value is inactive: 2.4%.
As to `CCOc1ccc(C(=O)OCCN(CC)CC)cc1`, the “activity change, negative = inhibition” value is inactive: -4.19%.
The result for `CC1CCN=C(N)S1` (configuration not stated) reads inactive: 3.48% [at 75.8 µM]; that for `CCCCCCCCCCCCCCCC(=O)O`, inactive: 26.2%; that for `Cc1ncoc1C(=O)N1CCOc2ccc(CN3CCC(Oc4cccnc4)CC3)cc2C1`, inactive: 4.52%.
To `COc1cc(=O)n2c(c1C(=O)NCc1ccco1)CCN(Cc1ccc3nsnc3c1)CC2` belongs inactive: 18.1%; to `C/C(=C\C(=O)OCCCCCCCCC(=O)O)C[C@@H]1OC[C@H](C[C@@H]2O[C@H]2[C@@H](C)[C@H](C)O)[C@@H](O)[C@H]1O`, inactive: 10.4%.
Take `O=S(=O)(c1ccccc1)N1CCC[C@@]2(CCN(c3ccncc3)C2)C1`: the “activity change, negative = inhibition” value is inactive: 19.1%.
The result for `CC1O[C@@H](O[C@H]2C(Oc3cc(O)c4c(=O)cc(-c5ccc(O)cc5)oc4c3)OC(CO)C(O)C2O)C(O)C(O)C1O` (some centres not stated) reads inactive: 8.06%; that for `COc1ncc2nc(C)c(=O)n(C)c2n1`, inactive: 16.8%; that for `CNc1ncnc2ccc(-c3ccccc3C)cc12`, inactive: 11.4%.
With `O=c1c(-c2cccs2)nc2cnc(N3CCNCC3)nc2n1CCc1ccccc1`, the “activity change, negative = inhibition” value is inactive: -0.878%.
To `COc1ccc2[nH]cc(CCNc3ncnc4ccc(-c5ccoc5)cc34)c2c1` belongs inactive: -0.401%; to `CC1(C)OC2CC3C4CC(F)C5=CC(=O)CC[C@@]5(C)C4C(O)C[C@@]3(C)[C@]2(C(=O)CO)O1` (some centres not stated), inactive: 8.09%.
To `COc1ncc2nc(-c3cc(F)cc(F)c3)c(=O)n(Cc3cccs3)c2n1` belongs inactive: -1.47%; to `CC/C(=C/c1ccccc1)c1cc(Oc2ccccc2)cc2oc3ccccc3c12`, inactive: -25.4%; to `C=C[C@@]1(C)CC(=O)[C@@]2(O)[C@@]3(C)[C@@H](O)CCC(C)(C)[C@@H]3[C@H](OC(=O)CCN(C)C)[C@H](OC(C)=O)[C@@]2(C)O1`, inactive: 4.09%.
The result for `O=C(NCc1ccccn1)c1cnn(-c2nccc(-c3cccs3)n2)c1C1CC1` reads inactive: 13.1%.
Regarding `CCCCC/C=C\C/C=C\C/C=C\C/C=C\CCCC(=O)O[C@@H](CO)COCCCCCCCCCCCCCCCC`, the activity change, negative = inhibition was inactive: 21.6% [at 15.3 µM].
`Cc1cc(-c2ccnc(-n3ncc(C(=O)NCCc4cccnc4)c3C)n2)c(C)s1`: the “activity change, negative = inhibition” value is inactive: 6.29%.
Regarding `CN1CCN(c2ncncc2-c2ccc(N(C)C)cc2)CC1`, the “activity change, negative = inhibition” value is inactive: 9.3%.
The result for `O=c1oc2cc(O)ccc2s1` reads inactive: -7.73%; that for `NNc1nnc(NN)c2ccccc12`, inactive: 6.16%.
To `Cc1oc(-c2ccccc2NC(=O)c2ccccc2)nc1CNC(=O)c1c(-c2ccccc2)noc1C` belongs inactive: 0.479%.
To `COc1cc2ncnc(Nc3cccc(Cl)c3)c2cc1OC` belongs “inactive”.
As for `OCc1nc2ccc(Cl)cc2[nH]1`, the “activity change, negative = inhibition” value is inactive: 12.5%.
As to `O=C(c1cccnc1)C1CCCN(Cc2ccc3c(c2)CN(C(=O)c2cccs2)CCO3)C1` (configuration not stated), the “activity change, negative = inhibition” value was inactive: 7.59%.
To `CO/N=C(/C(=O)N[C@@H]1C(=O)N2C(C(=O)O)=C(Cn3nnc(C)n3)CS[C@H]12)c1csc(N)n1` belongs inactive: 226%; to `N[C@H](CCC(=O)N[C@H](CSN=O)C(=O)NCC(=O)O)C(=O)O`, inactive: 9.06%.
To `COc1ccc2cc(CNC3CCS(=O)(=O)C3)c(-c3ccc(OC)c(OC)c3)nc2c1` (configuration not stated) belongs inactive: 6.02%; to `COc1ccc(Oc2ncc3nc(-c4ccc(Cl)cc4)c(=O)n(C)c3n2)cc1`, inactive: -0.348%; to `O=C(O)c1ccccc1O`, “inactive”.
The result for `COc1ccc(-c2nc3cnc(N4CCOCC4)nc3n(C3CC3)c2=O)cc1` reads inactive: 19.2%.
Regarding `Cc1c(O)cc2c(c1C)O[C@](C)(CCC[C@H](C)CCC[C@H](C)CCCC(C)C)CC2`, the “activity change, negative = inhibition” value is inactive: -11.5%.
To `COc1ccc(-c2cccc3c2OC(CNC(=O)c2ccc4c(c2)OCO4)C3)nn1` (configuration not stated) belongs inactive: 5.4%; to `COCCn1c(=O)c(-c2ccccc2)nc2cnc(N(C)C)nc21`, inactive: 14.9%; to `CC(C)c1nc(N(C)S(C)(=O)=O)nc(-c2ccc(F)cc2)c1/C=C/C(O)CC(O)CC(=O)O` (configuration not stated), inactive: 8.87%.
To `CCOC(=O)c1cnc2c(cnn2CC)c1NN=C(C)C` belongs “inactive”; to `C[C@@H]1C[C@H]2[C@@H]3CCC4=CC(=O)C=C[C@]4(C)[C@@]3(Cl)[C@@H](O)C[C@]2(C)[C@@]1(OC(=O)c1ccco1)C(=O)CCl`, inactive: 7.4% [at 75.8 µM]; to `COc1ccc(-n2c(=O)c(-c3cc(F)cc(F)c3)nc3cnc(N4CCNCC4)nc32)cc1`, inactive: 9.62%.
The result for `CN1CCCN(C(c2ccccc2)c2ccc(Cl)cc2)CC1` (configuration not stated) reads inactive: 14.5%; that for `CCOC(=O)[C@H](CCc1ccccc1)N[C@@H](C)C(=O)N1C(=O)N(C)C[C@H]1C(=O)O`, inactive: 3.42%; that for `COCCn1c(=O)c(C)nc2cncnc21`, inactive: 16.7%.
In the case of `CNc1nc(-c2ccccc2C)nc2ccccc12`, the “activity change, negative = inhibition” value was inactive: -8.15%.
In the case of `O=C(O)[C@H](CC(=O)N1C[C@H]2CCCC[C@H]2C1)Cc1ccccc1`, the “activity change, negative = inhibition” value was inactive: 22.6%.
The result for `N[C@H](C(=O)O)c1ccc(O)cc1` reads inactive: 4.08%; that for `CN1CCN(c2ncc3nc(-c4cccc(C#N)c4)c(=O)n(C[C@H]4CCCO4)c3n2)CC1`, inactive: 5.76%.
To `CC(C)(CO)NC(=O)c1cnn(-c2ncc3c(n2)-c2ccccc2CC3)c1C1CC1` belongs inactive: -12.3%; to `CCOc1ccc2nc(S(N)(=O)=O)sc2c1`, inactive: 3.86%; to `Nc1ncnc2c1ncn2C1OC(COP(=O)(O)O)C(O)C1O` (configuration not stated), inactive: 13.4%.
Turning to `O=C(c1cnccn1)N1CCC2(CC1)CN(Cc1cc(C(F)(F)F)cc(C(F)(F)F)c1)C2`, the “activity change, negative = inhibition” value is inactive: -9.25%.
The result for `CN(C)c1ccc(-c2nccc(NCCN3CCOCC3)n2)cc1` reads inactive: 9.12%; that for `CN(C)C(=O)c1ccc(-c2cc(NCc3cccs3)ncn2)cc1`, inactive: 8.09%.
As for `NCCCCNS(=O)(=O)c1ccc2c(Cl)cccc2c1`, the “activity change, negative = inhibition” value was inactive: 3.49%.
To `CSc1nnc(CCNC(=O)c2ccccc2C(F)(F)F)n1-c1ccc(F)cc1` belongs inactive: 26.2%; to `CCc1c(C)c2ccccc2[nH]c1=O`, inactive: 24.8%; to `O=C(NCc1ccon1)c1ccc(-c2csc3ccccc23)nc1N1CCC(N2CCCC(CO)C2)CC1` (configuration not stated), inactive: 22.8%.
To `Cn1c(=O)c(-c2ccc(F)cc2)nc2cnc(N3CCOCC3)nc21` belongs inactive: 1.1%; to `COc1ccc(-n2c(=O)c(-c3cccs3)nc3cnc(N4CCN(C)CC4)nc32)cc1`, inactive: 11.9%.
On to `C=C1CC/C=C(\C)CC[C@@H]2[C@@H]1CC2(C)C`, for which the “activity change, negative = inhibition” value was inactive: 8.41%.
For `O=C(c1cc(C(F)(F)F)cc(C(F)(F)F)c1)N1CCC2(CC1)CCN(c1ccncc1)CC2`, the “activity change, negative = inhibition” value was inactive: 16.8%.
To `Cc1cccc(CNc2nc(-c3ccc4c(c3)OCO4)nc3ccccc23)c1` belongs inactive: -0.721%.
For `CC(C)OC(=O)C(C)(C)Oc1ccc(C(=O)c2ccc(Cl)cc2)cc1`, the activity change, negative = inhibition entry was “inactive”.
To `COc1ccccc1-c1oc2ccccc2c(=O)c1O` belongs inactive: 1.62%; to `Cc1cc(C(=O)N(Cc2cc3cc4c(cc3nc2N2CCOCC2)CCC4)CC2CCCO2)c(=O)[nH]c1C` (configuration not stated), inactive: -10.9%.
The result for `CCNC(=O)[C@H]1O[C@H](n2cnc3c(N)nc(NCCc4ccc(CCC(=O)O)cc4)nc32)[C@@H](O)[C@@H]1O` reads inactive: 13.2%; that for `CN(C(=O)c1cnn(-c2nccc(-c3ccccc3C(F)(F)F)n2)c1C1CC1)C1CCOC1` (configuration not stated), inactive: 9.74%; that for `Cc1nc2cnc(N3CCN(C)CC3)nc2n(Cc2cccs2)c1=O`, inactive: 0.735%.
For `COC(=O)c1cc(CNC(=O)c2ccccn2)cc(NC(=O)c2ccccc2OC)c1`, the “activity change, negative = inhibition” value is inactive: 16.2%.
With `C/C=C1\NC(=O)[C@H]2CSSCC/C=C/[C@H](CC(=O)N[C@H](C(C)C)C(=O)N2)OC(=O)C(C(C)C)NC1=O` (some centres not stated), the “activity change, negative = inhibition” value is inactive: 1.87%.
The result for `CC1=C(C(=O)OC(C)C)[C@@H](c2cccc3nonc23)C([N+](=O)[O-])=C(C)N1` reads inactive: -19.5%; that for `C[C@@H](CCc1ccc(O)cc1)NCCc1ccc(O)c(O)c1`, inactive: 14%; that for `CCCC(=O)O[C@]1(C(=O)COC(=O)CC)[C@@H](C)C[C@H]2[C@@H]3CCC4=CC(=O)C=C[C@]4(C)[C@@]3(F)[C@@H](O)C[C@@]21C`, inactive: 5.75%.
To `COc1cccc(Nc2ncc3nc(CCc4ccccc4)c(=O)n(C[C@H]4CCCO4)c3n2)c1` belongs inactive: 13.3%.
The result for `COc1ncc2nc(-c3ccc(F)cc3)c(=O)n(Cc3ccc(F)cc3)c2n1` reads inactive: 16.1%; that for `CCOC(=O)[C@@H](C)N(C(=O)OC(C)(C)C)S(=O)(=O)N(Cc1ccccc1)[C@@H](C(=O)OC)C(C)C`, inactive: -6.25%.
In the case of `CO[C@]1(NC(=O)C(C(=O)O)c2ccc(O)cc2)C(=O)N2C(C(=O)O)=C(CSc3nnnn3C)COC21` (some centres not stated), the “activity change, negative = inhibition” value is inactive: 10.8%.
The result for `CC(=O)NCCNc1ccnc(-c2ccccc2C(F)(F)F)n1` reads inactive: 4.28%.
Consider `Cc1cc2c(s1)Nc1ccccc1N=C2N1CCN(C)CC1`, for which the activity change, negative = inhibition entry was “inactive”.
In the case of `CC1(C)O[C@H]2C[C@@H]3[C@H]4CCC5=CC(=O)C=C[C@]5(C)[C@@]4(F)[C@@H](O)C[C@]3(C)[C@]2(C(=O)CO)O1`, the “activity change, negative = inhibition” value is inactive: 15.9%.
The result for `O=C(O)CC1CCCc2ccccc2C1O` (configuration not stated) reads inactive: 10.9% [at 75.8 µM]; that for `CC(=O)OCC(=O)C1CCC2C3CCC4=CC(=O)CC[C@@]4(C)C3CC[C@]12C` (some centres not stated), inactive: 8.45%; that for `Cc1cccc(CNc2ccnc(-c3ccc(C(=O)N(C)C)cc3)n2)c1`, inactive: 23.1%.
To `FC(F)(F)c1ccccc1-c1nccc(-n2ccnc2)n1` belongs inactive: 15.6%.
The result for `CCOC(=S)SSC(=S)OCC` reads inactive: 18.5%; that for `COCCn1c(=O)c(-c2ccc(Cl)cc2)nc2cnc(Nc3ccccc3)nc21`, inactive: 16.9%; that for `Cc1ccc(CNc2nc(CN3CCN(C=O)CC3)nc3ccccc23)o1`, inactive: 17.8%.
For `O=S(=O)(O)Oc1ccc(C(c2ccc(OS(=O)(=O)O)cc2)c2ccccn2)cc1`, the “activity change, negative = inhibition” value was inactive: 24.9%.
The result for `CC[C@H]1OC(=O)[C@H](C)[C@@H](O[C@H]2C[C@@](C)(OC)[C@@H](O)[C@H](C)O2)C(C)[C@@H](O[C@@H]2O[C@H](C)C[C@H](N(C)C)[C@@H]2O)[C@](C)(OC)C[C@@H](C)C(=O)[C@H](C)[C@@H](O)[C@]1(C)O` (some centres not stated) reads inactive: -5.07%; that for `Cc1nc2ccccc2nc1CN1CCOc2ccc(C3(O)CCN(c4ccccc4F)CC3)cc2C1`, inactive: 7.83%.
With `O=C(c1ccco1)N1CCC2(CC1)CN(c1ccccn1)C2`, the “activity change, negative = inhibition” value was inactive: 5.99%.
The result for `CCn1c(-c2cccc(OC)c2)nc2cc(NC(C)=O)cc(C(=O)N3CCC[C@H]3C(=O)OC)c21` reads inactive: 17.2%.
To `COC(=O)c1c(C)cc(OC)cc1O` belongs inactive: 12%.
The result for `O=C1c2ccccc2C(=O)C1c1ccc(Br)cc1` reads inactive: -2.34%; that for `NC(=O)CC[C@H](N)C(=O)O`, “inactive”; that for `COC(=O)CCC(=O)CN`, inactive: 14.5%.
Take `C[C@@H]1CCC(=O)N(C[C@@H](C)CSc2ccccc2)CC1`: the “activity change, negative = inhibition” value is inactive: -1.52%.
